In the supplement of paper PMC4166925:
± gives the standard deviation of the averaged measurements. In all, about 33,000 sequences were measured (“E-score (dimensionless, -0.5 to 0.5)”: median about -0.049, highest 2% from about 0.37 on). The list shows a part of the results.

test system: T1, PmTbr T-box DNA-binding domain (GST fusion); assay: PBM E-score of 8-mer (E-score (dimensionless, -0.5 to 0.5)); Tbr is Tbrain of the sea star Patiria miniata (Pm) or the sea urchin Strongylocentrotus purpuratus (Sp); higher = stronger binding preference; most listed sequences are background and not binding sites; conditions: the construct has about 5 more residues each side
T1 sequence: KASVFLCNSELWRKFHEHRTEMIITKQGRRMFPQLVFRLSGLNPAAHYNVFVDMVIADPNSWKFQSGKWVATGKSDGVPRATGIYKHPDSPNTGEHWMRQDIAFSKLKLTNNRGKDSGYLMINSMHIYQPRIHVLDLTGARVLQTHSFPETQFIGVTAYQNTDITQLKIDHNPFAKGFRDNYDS
Summary of the method: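 GST-fused Tbr T-box DNA-binding domains (the whole T-box plus about five flanking residues) were expressed in BL21 E. coli at 20 °C and purified by glutathione affinity chromatography. Universal Agilent oligonucleotide arrays were made double-stranded by primer extension, incubated with 200 nM protein in PBS (pH 7.5), then scanned and quantified. Every ungapped 8-mer was scored from probe intensities. The Universal PBM Analysis Suite gave each word an enrichment E-score, averaged over duplicate arrays.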

Sequence | PBM E-score of 8-mer
CAAATTCG | 0.0471 ± 0.029
CCATCACG | 0.033 ± 0.018
AGACTTGG | -0.0921 ± 0.053
ACACGACC | 0.0984 ± 0.062
GTAGTGCA | -0.21 ± 0.062
GAACTGTA | -0.0173 ± 0.082
CTGTCAAC | 0.338 ± 0.011
CTGCTCAC | 0.0418 ± 0.0086
CAAATAGG | -0.0632 ± 0.017
GGCATCAA | -0.195 ± 0.1
CAGTTTAG | 0.0181 ± 0.017
CGGGATGA | -0.139 ± 0.059
CAAACCTC | -0.2857 ± 0.00071
CGTCCTGA | -0.154 ± 0.015
CCCTCGTC | -0.00802 ± 0.031
CTCAAAAC | -0.0754 ± 0.0071
GAATCTTA | -0.189 ± 0.022
ATAAGTGC | 0.251 ± 0.0033
CAAAACCA | -0.0609 ± 0.091
GTCTCAAA | -0.197 ± 0.014
GATTCACA | 0.38 ± 0.041
AAAACCTG | 0.191 ± 0.063

Sequence | PBM E-score of 8-mer
GTAGGGAA | -0.149 ± 0.0074
GTGGCTGA | 0.113 ± 0.04
ACAGCTTC | 0.19 ± 0.02
GTCTTACA | -0.135 ± 0.0075
CAAACACC | 0.35 ± 0.015
ATTCCGGC | 0.106 ± 0.026
CAATCTGC | 0.00739 ± 0.0085
GATGAGTA | -0.079 ± 0.028
CAGCGTCC | -0.214 ± 0.0055
CTCTAAGA | -0.271 ± 0.053
GACTCAAA | -0.277 ± 0.029
CCACTTAG | -0.0105 ± 0.01
CCTGCCCC | -0.0529 ± 0.052
AACGCTCA | 0.0651 ± 0.03
CTATTATC | -0.101 ± 0.018
CCGATGGA | -0.21 ± 0.0023
GAAGACAC | 0.314 ± 0.012
CGTTTAAA | -0.375 ± 0.013
AATGCACG | -0.0698 ± 0.084
CAGTTTAC | 0.0267 ± 0.0082
AGTTTAGC | -0.0656 ± 0.044
GACCTCGC | 0.0974 ± 0.064

Sequence | PBM E-score of 8-mer
CAAAATCC | -0.0365 ± 0.016
ATAACCAA | -0.112 ± 0.038
AAGTCACG | 0.209 ± 0.01
ATAATCCC | -0.17 ± 0.031
AGCCACAA | 0.0383 ± 0.00057
GCAACCGA | 0.0552 ± 0.038
GGATGTGA | 0.267 ± 0.021
TCTAAGCA | -0.0206 ± 0.015
AATAGTGG | 0.103 ± 0.038
AAAAATCT | 0.0192 ± 0.13
GGAATTCC | -0.174 ± 0.038
CGGTCGGC | -0.0774 ± 0.016
AGAGTTAA | 0.0267 ± 0.1
AACGAGGA | -0.1794 ± 0.00061
GAACCCGC | -0.0487 ± 0.038
CGAAGTTC | -0.0527 ± 0.02
AACTTGCC | 0.151 ± 0.0032
AACCCGTG | 0.158 ± 0.045
GAACTCGA | 0.127 ± 0.09
CACCAATG | 0.154 ± 0.009
AGAAAAGA | 0.118 ± 0.13
AGAGTCGG | -0.0477 ± 0.017

Sequence | PBM E-score of 8-mer
TCTACGCA | -0.0731 ± 0.034
GGTCTTTA | -0.29 ± 0.029
ATGCGAAC | 0.13 ± 0.018
ATCGTTAG | -0.0601 ± 0.038
AATCGAGA | -0.044 ± 0.02
CATTTACG | -0.115 ± 0.15
AACCTGCT | -0.0229 ± 0.061
CCGCGCTC | 0.0344 ± 0.078
AGAATTAG | 0.0754 ± 0.062
ATGCCTAC | -0.246 ± 0.011
GTTTGTCA | 0.228 ± 0.043
TGAAGCAA | -0.229 ± 0.055
CCTGACTA | 0.00126 ± 0.025
ATAATCTC | -0.114 ± 0.039
ATCCCGAC | 0.0102 ± 0.0067
ATTGGTAG | -0.00375 ± 0.026
AAAAGCAA | -0.00863 ± 0.0022
GCCGTAGA | -0.259 ± 0.051
GGTAAGTA | -0.0321 ± 0.051
ACAAGACA | 0.0595 ± 0.094
ACCGATAC | -0.0871 ± 0.047
AGGGGCAG | -0.185 ± 0.048

Sequence | PBM E-score of 8-mer
AATAGCAA | 0.0972 ± 0.078
CGTAGTAG | -0.133 ± 0.047
ATACGGAG | 0.138 ± 0.0076
ATTTCGAG | 0.09258 ± 0.00026
GCTTCTTA | -0.0234 ± 0.0084
GAATCGCA | 0.236 ± 0.012
CGTAGCGC | 0.0552 ± 0.042
ATGCGTTA | 0.269 ± 0.051
CTAGTTCC | -0.0443 ± 0.018
CTCCAAAC | -0.108 ± 0.11
CACGTTTA | 0.206 ± 0.09
CTCACCTA | 0.4081 ± 0.0035
TACTCCTA | -0.0936 ± 0.005
GTGAACCA | 0.1565 ± 0.00064
GGTGTGCA | 0.365 ± 0.017
AGGTCCCA | -0.0519 ± 0.039
CCAGGTGC | 0.379 ± 0.014
AGTAGGTC | -0.148 ± 0.05
CGGGGGAA | -0.185 ± 0.079
AGTAGGAA | -0.13 ± 0.062
ACCTAGAC | 0.098 ± 0.072
